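In this assay, cells in 96-well plates receive the compound at five concentrations for 48 hours. Endpoints are linearly interpolated between the surrounding concentrations. GI50 is the concentration that inhibits growth by half. TGI: concentration producing complete growth inhibition.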
These compounds were tested on NCI-H322M lung (assay: NCI-60 cell line screen, 48 h).
Compound `Cc1ccc2c(n1)C(=O)C(Cl)=C(Nc1ccccc1C(=O)OC(C)(C)C)C2=O` has a GI50 of 10.7 µM and a TGI of 54 µM.
With `C=C1[C@@H](C)C2[C@H](Cc3ccccc3)NC(=O)[C@]23[C@H](OC(C)=O)/C=C/[C@@](C)(O)C(=O)[C@@H](C)C/C=C/[C@H]3[C@@H]1O` (some centres not stated) the GI50 was > 16.7 µM and the TGI was > 16.7 µM.
For `CN(C)CCCOc1c2ccc(Cl)cc2nc2c1oc1ccccc12`, the GI50 was 1.55 µM and the TGI was 10.4 µM.
For `CC[C@]12CC(C(=O)OC)=C3Nc4ccccc4[C@@]34CCN(C14)[C@@H]1c3cc4c(cc3O[C@@H]1[C@H]2O)NC1=C(C(=O)OC)C[C@@]2(CC)C3N(CC[C@@]143)C[C@H]1O[C@H]12` (some centres not stated), the GI50 was 0.455 µM and the TGI was > 50 µM.
With `CN1CCN(Cc2ccc(NC(=O)c3cncc(C#Cc4cnc5ccc(OCC(C)(C)O)nn45)c3)cc2C(F)(F)F)CC1` the GI50 was 0.264 µM and the TGI was 0.71 µM.
`COc1ccc(/C=N/Nc2ccnc3cc(Cl)ccc23)cc1Cl` was tested, and the GI50 was 1.72 µM and the TGI was 3.13 µM.

Source: PubChem BioAssay (NCI)
